# Data taken from publication PMC4336329 (PLoS ONE, 2015).
# Hit rate of the full screen: of about 310,000 compounds, about 14,000 (4.5%) showed an effect of 50% or more. The effect is printed as a negative number. This is one part of the list.
# Molecular target: human ether-à-go-go-related gene (hERG) potassium channel (human, UniProt Q12809)
# Experiment: primary screen, population patch clamp on CHO cells stably expressing hERG
# 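Also: peak tail current of the secondary pulse compared with the same well before compound.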
# Chain of human ether-à-go-go-related gene (hERG) potassium channel (Q12809 whole entry, looked up): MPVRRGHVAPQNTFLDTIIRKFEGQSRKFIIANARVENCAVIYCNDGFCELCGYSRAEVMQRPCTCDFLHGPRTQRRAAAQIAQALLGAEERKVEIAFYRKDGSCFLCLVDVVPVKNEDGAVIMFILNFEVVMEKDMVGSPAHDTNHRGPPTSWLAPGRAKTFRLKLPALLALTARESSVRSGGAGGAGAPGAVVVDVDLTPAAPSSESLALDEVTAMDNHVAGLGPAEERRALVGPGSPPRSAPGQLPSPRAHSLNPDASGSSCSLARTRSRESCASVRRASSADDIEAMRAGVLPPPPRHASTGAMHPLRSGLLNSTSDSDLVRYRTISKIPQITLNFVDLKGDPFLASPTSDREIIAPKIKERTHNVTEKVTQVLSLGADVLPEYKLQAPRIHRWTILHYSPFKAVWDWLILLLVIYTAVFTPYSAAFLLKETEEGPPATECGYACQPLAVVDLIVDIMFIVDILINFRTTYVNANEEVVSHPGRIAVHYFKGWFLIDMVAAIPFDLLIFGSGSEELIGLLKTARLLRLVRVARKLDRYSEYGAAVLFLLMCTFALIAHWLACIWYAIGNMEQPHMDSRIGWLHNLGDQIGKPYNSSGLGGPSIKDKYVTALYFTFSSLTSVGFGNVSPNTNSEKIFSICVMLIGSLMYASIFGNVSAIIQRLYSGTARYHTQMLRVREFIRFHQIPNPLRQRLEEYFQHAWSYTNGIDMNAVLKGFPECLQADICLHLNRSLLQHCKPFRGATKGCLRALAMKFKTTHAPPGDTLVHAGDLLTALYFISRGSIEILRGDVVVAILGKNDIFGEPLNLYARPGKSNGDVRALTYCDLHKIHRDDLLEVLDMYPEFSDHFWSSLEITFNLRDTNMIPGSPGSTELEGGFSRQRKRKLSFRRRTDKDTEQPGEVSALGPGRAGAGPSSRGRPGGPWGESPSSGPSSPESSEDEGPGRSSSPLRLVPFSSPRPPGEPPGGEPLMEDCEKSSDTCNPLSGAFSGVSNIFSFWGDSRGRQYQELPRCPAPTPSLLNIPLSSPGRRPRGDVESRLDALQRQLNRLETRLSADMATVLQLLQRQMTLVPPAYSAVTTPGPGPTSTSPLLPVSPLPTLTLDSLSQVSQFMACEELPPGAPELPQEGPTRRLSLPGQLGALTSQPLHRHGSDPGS
row,SMILES,"hERG current change (%, negative = inhibition) at 10uM"
1,COc1ccc(CCNC(=O)C2CCN(Cc3nc(-c4cccc(Cl)c4)oc3C)CC2)cc1OC,-85.2%
2,CCCN1CCN(C(=O)Cn2nc(CC)n3c(cc4sccc43)c2=O)CC1,-16.4%
3,CCSc1nnc(NC(=O)c2ccc(F)c(S(=O)(=O)N3CCOCC3)c2)s1,3.58%
4,CC(=O)Nc1ccc2c(c1)nc(CCN1CCN(C)CC1)n2C,-2.56%
5,CCOC(=O)N1CCN(C(=O)CNC(=O)Cc2ccc(Cl)cc2)CC1,-11.3%
6,O=C(Nc1ccc(NC(=O)c2ccccc2O)cc1)Nc1ccc(F)cc1F,13.8%
7,COc1cc2c(c(OC)c1OC)-c1ccc(OC)c(=O)cc1[C@@H](NC(C)=O)CC2,21.3%
8,CC(=O)c1cccc(NC(=O)CC2S/C(=N/N=C3CCCCCC3)NC2=O)c1 (stereo not shown),-2.12%
9,CC(=O)c1ccc(NC(=O)CSc2n[nH]c(-c3cccnc3)n2)cc1,16.7%
10,COc1ccc(N(CC(=O)NCCc2ccccc2)C(=O)CCC(=O)Nc2nccs2)c(OC)c1,-15.2%
11,CCCCOC(=O)CSc1nc2c(c(=O)[nH]c(=O)n2C)n1C/C=C(\C)Cl,-20.6%
12,Cn1ncc(N=Cc2ccccc2[N+](=O)[O-])c1C(N)=O,11.8%
13,CC(c1ccco1)N(C(=O)C12CC3(C)CC(C)(CC(C)(C3)C1)C2)c1ccccn1 (stereo not shown),10.1%
14,O=c1[nH]c(=O)c2ccccc2[nH]1,13.1%
15,CC(C)(C)OC(=O)NCCc1nnc(SCc2ccccc2Cl)o1,-23%
16,CC(C)C(=O)c1cc2c(cc1NC(=O)c1ccccc1)OCCO2,21.2%
17,O=C(O)c1cccc(NC(=O)c2ccc3c(c2)C(=O)N(CC2CCCO2)C3=O)c1 (stereo not shown),3.92%
18,O=C(O)CN1C(=O)c2ccc(Oc3cccc4c3C(=O)N(CC(=O)O)C4=O)cc2C1=O,7.52%
19,Cc1nnc(SCc2cccc([N+](=O)[O-])c2)o1,11.3%
20,CCN(c1cccc(C)c1)S(=O)(=O)c1csc(C(N)=O)c1,11.8%
21,COC(=O)c1c(C)[nH]c(C(=O)OCC(=O)N(CC(C)C)c2c(N)n(Cc3ccccc3)c(=O)[nH]c2=O)c1C,-5.09%
22,O=C(Nc1nc2ccc(S(=O)(=O)N3CCCC3)cc2s1)c1ccco1,11.5%

row,SMILES,"hERG current change (%, negative = inhibition) at 10uM"
1,O=C(NCc1ccccc1)N1CCN(c2ccc(Cl)c(Cl)c2)CC1,14.3%
2,Cc1ccc(Cc2nnc3n(-c4cccc(C)c4)nc(C(=O)c4ccccc4)n3c2=O)cc1,-3.85%
3,O=C(CSc1nnc(-c2cccc(S(=O)(=O)N3CCCC3)c2)n1-c1ccccc1)Nc1cccc(C(=O)O)c1,-19.9%
4,COc1ccc(CNC(=S)Nc2cccc(F)c2)cc1,-5.98%
5,Cc1cc(C)c2c(N)c3ccccc3nc2n1,-53.9%
6,O=C(CSc1ccccc1C(=O)N1CCCCC1)NCC1CCCCC1,10.4%
7,O=C(O)C(=O)O.Oc1ccccc1CNCCCN1CCOCC1,16.3%
8,COc1ccc(C2C3=C(CC(C)(C)CC3=O)Oc3ncn(CCO)c(=N)c32)cc1OC (stereo not shown),-24.5%
9,COC(=O)c1cn(C(=O)c2cc(Br)ccc2Cl)c2ccccc12,22.2%
10,CCC(C)Nc1nc(-c2cccc(OC)c2O)nc2ccccc12 (stereo not shown),-5.73%
11,C/C(=N\NC(=O)Cn1nnc2ccccc21)c1ccco1,24%
12,Cc1ccc2cccc(Oc3ncnc4sc(C)c(C)c34)c2n1,15.3%
13,CCCCCCCCCCCCCCCC(=O)NCCO,9.93%
14,CNC(=O)C1CCN(S(=O)(=O)c2c(C)noc2/C=C/c2ccc(OC)cc2)CC1,-5.2%
15,CCOC(=O)C1CCN(C(=O)CN(c2ccc3c(c2)OCCO3)S(=O)(=O)c2ccccc2)CC1,-53.1%
16,c1ccc(CN2CCN(c3nc(-c4ccccc4)nc(-n4ccnc4)n3)CC2)cc1,-7.81%
17,Cn1c(=O)[nH]c(=O)c2c1nc(SCCCO)n2CCCc1ccccc1,-22.8%
18,CCOC(=O)Nc1ccc2c(c1)N(C(=O)CN1CCN3CCCC3C1)c1ccccc1CC2.Cl (stereo not shown),-43.2%
19,Nc1ccc(S(=O)(=O)N2CCCC2C(=O)O)cc1 (stereo not shown),-1.72%
20,CN(c1ccc(OCC(=O)OCC(=O)Nc2ccccc2)cc1)S(=O)(=O)c1ccc(F)cc1,-11.9%
21,NC(=O)CC(NC(=O)Cc1cccc2ccccc12)c1ccc(NCCc2cccc(F)c2)c([N+](=O)[O-])c1 (stereo not shown),4.2%
22,Cc1cc(C)nc(Nc2cc([N+](=O)[O-])ccc2C)n1.Cl,9.26%

row,SMILES,"hERG current change (%, negative = inhibition) at 10uM"
1,CC1=CCC2C(=O)N(c3ccc(S(N)(=O)=O)cc3)C(=O)C2C1 (stereo not shown),11.2%
2,COc1ccc(C(=O)C[n+]2cc(Br)cc3ccccc32)cc1[N+](=O)[O-].[Br-],-66.3%
3,Cc1c(NS(=O)(=O)c2ccc(Br)cc2)c(=O)n(-c2ccccc2)n1C,-6.03%
4,CCOc1ccc(N(CC(=O)Nc2ccccc2C(=O)N2CCOCC2)S(=O)(=O)c2ccc(F)cc2)cc1,-30.5%
5,COc1ccc(S(=O)(=O)NNC(=O)c2ccc([N+](=O)[O-])cc2)cc1,5.85%
6,Cc1ccc(CNC(=O)[C@H]2C[C@@H]2[C@H](NP(=O)(c2ccccc2)c2ccccc2)c2ccccc2)o1,-20.8%
7,COc1ccc(CCNC(=O)C2CCCN2C(=O)Nc2ccc(F)cc2)cc1OC (stereo not shown),16.5%
8,CN1CCN(c2nc(N3CCN(CCO)CC3)nc3ccccc23)CC1.Cl,7.33%
9,O=C1NC2(CCCCC2)C(=O)N1Cc1ccc([N+](=O)[O-])cc1,-47.7%
10,CCOC(=O)Cc1nn(CCc2ccccn2)c(=O)c2ccccc12,-6.89%
11,O=C(COc1ccccc1)N1CCN(C(=O)c2ccc([N+](=O)[O-])cc2)CC1,-62.4%
12,CC(C)(C)c1ccc(C(=O)NNC(=S)NC(=O)c2cccnc2)cc1,10.9%
13,CCCc1c(-c2ccc(O)cc2)nn(-c2ccc(O)cc2)c1-c1ccc(O)cc1,12.6%
14,COC(=O)CSC(=S)N1C(C)CCCC1C (stereo not shown),37.2%
15,O=C(NCCc1ccc(F)cc1)Nc1ccccc1Cl,11.6%
16,O=C(/C=C/c1cccc(F)c1)N(c1ccccn1)C1CCCCC1,9.8%
17,COc1cccc(CNC(=O)CCCNC(=O)c2ccc(Cl)cc2)c1,-6.61%
18,CC(C)N(Cc1ccccc1)C(=O)CN1C(=O)NC2(CCCC2)C1=O,1.82%
19,Cc1nn2c(=O)c(NC(=O)c3ccc(Cl)cc3)cnc2s1,-6.02%
20,COc1cc(C(=S)N2CCOCC2)ccc1OC(=O)c1cc([N+](=O)[O-])c(C)c([N+](=O)[O-])c1,29.4%
21,Cc1ccc(NC(=O)c2ccc3ncsc3c2)cc1S(=O)(=O)N(C)C,-11.9%
22,COc1cc(/C=N/OCC(=O)NC23CC4CC(CC(C4)C2)C3)ccc1OCc1ccccc1,19.6%

row,SMILES,"hERG current change (%, negative = inhibition) at 10uM"
1,O=C(Nc1nncs1)c1cccc(S(=O)(=O)N2CCc3ccccc32)c1,-5.05%
2,CCn1cc(CN2CCC(C(=O)Nc3ccc(Oc4ccccc4)nc3)CC2)cn1,-30.3%
3,Cc1nc(C(=O)O)sc1C1(C)CC(c2cccc([N+](=O)[O-])c2)=NO1 (stereo not shown),-5.77%
4,O=[N+]([O-])c1ccc(N2CCN(C(=S)NCc3ccc(Cl)cc3)CC2)cc1,-8.05%
5,O=C(NCc1ccccc1)NC1CCS(=O)(=O)C1 (stereo not shown),13.6%
6,CC1=Nn2c(nnc2-c2n[nH]c3c2CCC3)SC1,8.18%
7,Cc1cc(=O)n(C2CCS(=O)(=O)C2)[nH]1 (stereo not shown),14.7%
8,Clc1ccc(-n2ncc3c(NCc4ccccn4)ncnc32)cc1,4.15%
9,CS(=O)(=O)N1CCN(c2ccccc2NC(=S)NC(=O)c2ccco2)CC1,-1.12%
10,CCOC(=O)Cc1csc(NC(=O)/C=C/c2ccco2)n1,-10.1%
11,Nc1cccc(S(=O)(=O)c2ccc(N)c(N)c2)c1,21.4%
12,Cn1c(=O)c2c(SCC(=O)Nc3ccccc3F)nc(C3CC3)nc2n(C)c1=O,-3.79%
13,COc1ccc2c3c(c(=O)oc2c1OCC(=O)C(C)(C)C)CCCC3,2.28%
14,CN(C)S(=O)(=O)c1ccc(NC(=O)CSc2n[nH]c(=O)n2C2CC2)cc1,47.2%
15,CCNC(=O)NC(=O)C(C)On1nnc2ccc(S(=O)(=O)N(CC)CC)cc21 (stereo not shown),3.03%
16,O=C(c1nnc(Cc2ccc(Cl)cc2)o1)N1CCc2ccccc2C1,-14.8%
17,Cc1occc1C(=O)NNC(=O)c1ccc(Br)o1,21.8%
18,O=C(c1cc(-c2cccs2)on1)N1CCc2ccccc2C1,2.17%
19,Clc1c(-c2nnc3n2CCCCC3)sc2ccccc12,-13.9%
